Data reported in PubChem BioAssay AID686979 (National Center for Advancing Translational Sciences (NCATS), 2013).
Where “and” joins values, the source holds several entries; their conditions need not be identical. Equal values may be shown once. Among all 420,000 compounds or so, about 50,000 (12%) were called active. This list was built around the results that the source calls inconclusive (neither active nor inactive); the mix of calls is not that of the screen. The call rests on the fitted dose curve; in most records, active means well fitted inhibition curve with a large enough effect; inconclusive means small, poorly fitted or top-dose-only effect; inactive means flat fitted curve, though single readings scatter. Potencies of inconclusive entries are left out as doubtful fits. A structure can be active in one record and inactive in another.

Assay: qHTS for Inhibitors of human tyrosyl-DNA phosphodiesterase 1 (TDP1): qHTS in cells in presence of CPT; further: nearly all actives have a fitted effect of over 55% in size
Conditions: chicken DT40 Tdp1-/-;hTDP1 cells + 20 nM CPT, ATP luminescence, 48 h; activity change, negative = growth inhibition: at 46.2 µM (top of the series) unless noted
How it was run: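 Chicken DT40 Tdp1-/- cells stably complemented with human TDP1 were seeded at 400 cells/well in medium containing 20 nM camptothecin, exposed to pin-transferred compounds, and grown at 37 °C for at least 48 hr. Viability was read as ATP luminescence.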
On the % scale 0 is the no-effect control and ±100 the full control effect; potency means the concentration at half of the fitted maximal effect; tags describe the fitted curve by direction and shape.

| SMILES | Potency | activity change, negative = growth inhibition |
| --- | --- | --- |
| COc1cc(/C=N/NC2=NC(C)(C)Cc3ccccc32)cc(OC)c1OC | inconclusive [inhibitor, single point] |  |
| O=[N+]([O-])c1cccnc1N1CCC(c2cc(-c3ccc(Cl)cc3Cl)n[nH]2)CC1 | active: 18.4 µM |  |
| CCOC(=O)c1ccccc1NC(=O)CSc1c(C)cnc2c1c(=O)n(C)c(=O)n2C | inconclusive [inhibitor, single point] |  |
| CC(CNC(=O)CCn1c(=O)c2cccn2c2ccc(F)cc21)c1ccccc1 (stereo not given) | inactive and active: 13 µM |  |
| COc1ccc(C(=O)/C(C#N)=N/Nc2cccc([N+](=O)[O-])c2)cc1 | active: 5.8 µM |  |
| O=C(c1ccc(NS(=O)(=O)c2cccc([N+](=O)[O-])c2)cc1)N1CCCCCC1 | inconclusive [inhibitor, partial curve] |  |
| COc1ccc(N(CC(=O)Nc2cc(C)ccc2C)S(=O)(=O)c2ccccc2[N+](=O)[O-])c(OC)c1 | inconclusive [inhibitor, single point] |  |
| CN(C)CCN(C(=O)c1ccccc1Cl)c1nc2c(Cl)cccc2s1 | inconclusive [inhibitor, single point] |  |
| Cc1cc(C)c(S(=O)(=O)Nc2ccc3oc4c(c3c2)CCCC4)cc1C | active: 16.4 µM |  |
| C=CCNc1ncnc2c1ncn2[C@H]1CN(Cc2ccccc2)C[C@@H](COC(C)=O)O1 | inconclusive [inhibitor, single point] |  |
| COCCOC(=O)c1c(NC(=O)CN2c3ccccc3CC2C)sc(C(N)=O)c1C (stereo not given) | inconclusive [inhibitor, single point] |  |
| Cn1nc(C(=O)Nc2nc3ccc(S(C)(=O)=O)cc3s2)ccc1=O |  | inconclusive: -31.5% [inhibitor] |
| COc1ccc(C2C=C(c3ccccc3)Nc3nc(NS(=O)(=O)c4ccccc4)nn32)cc1 (stereo not given) | inconclusive [inhibitor, single point] |  |
| Cc1cccc(C)c1-n1nnnc1C(c1ccnc2ccccc12)N1CCN(CC(=O)NC(C)C)CC1 (stereo not given) | inactive |  |
| O=C(CCNC(=O)c1ccc(Br)cc1)NNC(=O)c1ccccc1O | inconclusive [inhibitor, single point] |  |
| COc1ccc(C(=O)c2ccc(N(C)C)cc2)c(OC)c1 | active: 3.16 µM |  |
| CC1(C)OC(=O)C2=C(C[C@@H](CCOCc3ccccc3)O[C@H]2c2ccc(F)cc2)O1 | inconclusive [inhibitor, single point] |  |
| C[C@H]1COC(=O)[C@H](CC(=O)OC(C)(C)C)C/C=C\C[C@@H](CC(=O)N(CCO)Cc2ccccc2)C(=O)N1 | inconclusive [inhibitor, single point] |  |
| Cc1nc2c(c(C)c1CCC(=O)N1CCN(c3ccccc3)CC1)c(=O)n(C)c(=O)n2C | inactive |  |
| COc1cc2cc(C(=O)N3CCN(c4ccccc4OC)CC3)[nH]c2cc1OC | inactive |  |
| CC[C@H]1CCCCc2ccccc2[C@@H](C(=O)C[C@@H](O)CC(C)=O)OC1=O | active: 14.6 µM |  |
| C/C=C\C=C\C(=O)Nc1cccc(C2=NOC3(C2)C[C@H](C(N)=O)N(C(=O)c2ccccc2C(=O)c2ccccc2)C3)c1 (stereo not given in full) | inconclusive [inhibitor, single point] |  |
| O=C(Nc1cccc(Cl)c1Cl)c1cc(S(=O)(=O)N2CCCCC2)ccc1F | inconclusive [inhibitor, partial curve] |  |
| COc1ccccc1C/C(N)=N/OC(=O)c1cccs1 | inconclusive [inhibitor, single point] |  |

| SMILES | Potency | activity change, negative = growth inhibition |
| --- | --- | --- |
| COc1cccc(NC(=O)c2c(-c3ccc(C)cc3)nnc3ccccc23)c1 | inconclusive [inhibitor, single point] |  |
| CC(C)(C)NNC(=S)Nc1cccc(C(F)(F)F)c1 | active: 3.26 µM |  |
| CCOP(=O)(OCC)C(NC(=O)c1cc([N+](=O)[O-])cc([N+](=O)[O-])c1)C(F)(F)F (stereo not given) | inactive |  |
| Cc1cc2c(cc1C)[n+](C)cn2CC(O)COCc1ccccc1 (stereo not given) | inconclusive [inhibitor, single point] |  |
| CCOC(=O)c1ccccc1NS(=O)(=O)c1ccc(OC)cc1 | inconclusive [inhibitor, single point] |  |
| COC(=O)c1cc(=O)[nH]c(SCc2cccc(C)c2)n1 | inactive |  |
| Cc1csc(SCC(=O)c2c(N)n(C)c(=O)n(C)c2=O)n1 | inconclusive [inhibitor, single point] |  |
| Cn1c(=O)c(-c2cc(=O)[nH][nH]2)c(O)c2ccccc21 | inactive |  |
| COc1ccc(NC(=O)CSc2nc3ncccc3[nH]2)cc1OC | inconclusive [inhibitor, single point] |  |
| CC(c1ccco1)N(C(=O)c1cccc(S(=O)(=O)N(C)C)c1)c1ccccn1 (stereo not given) | inconclusive [inhibitor, single point] |  |
| Cc1ccc(CN2CCN(Cc3ccc(C)s3)CC2CCO)cc1 (stereo not given) | inactive |  |
| COc1ccc(C(=O)c2coc3ccc(O)cc23)cc1 | inactive |  |
| O=C(CN1C(=O)NC2(CCCCC2)C1=O)NCc1cccs1 | inactive |  |
| COc1ccc(CNC(=O)NC(C)(C)c2cccc(C(C)(C)NC(=O)NCc3ccc(OC)cc3)c2)cc1 | inactive |  |
| Cc1ccc(-n2c3nc(=O)[nH]c(=O)c-3cc3cc([N+](=O)[O-])ccc32)cc1 | active: 5.8 µM |  |
| C=CCn1c(CCC(O)COCCC)n[nH]c1=S (stereo not given) | inactive |  |
| O=C1CC(N(Cc2ccc3c(c2)OCO3)C(=O)Nc2ccc(F)cc2)C(=O)N1c1ccccc1 (stereo not given) | inactive |  |
| COc1ccc(NC(=O)CSc2ccc(-c3ccco3)nn2)cc1OC | active: 16.4 µM |  |
| N#CCSc1ccccc1NC(=O)COC(=O)CCN1C(=O)C2CC=CCC2C1=O (stereo not given) | inactive |  |
| CCN(C(=O)COC(=O)c1oc2ccc(OC)cc2c1C)C1CCCCC1 | inconclusive [inhibitor, single point] |  |
| CC1CC2=C(NC(=S)NC2c2ccc(F)cc2)/C(=C/c2ccc(F)cc2)C1 (stereo not given) | inconclusive [inhibitor, single point] |  |
| CNc1ccccc(-c2ccc3ccccc3n2)c1=O | inconclusive [inhibitor, partial curve] |  |
| CCOc1ccc2nc(SCC(=O)NCc3ccc(OC)c(OC)c3)[nH]c2c1 | active: 14.6 µM |  |
| Cc1cnc(C(=O)Nc2nc(-c3ccccc3)cs2)cn1 | inconclusive [inhibitor, single point] |  |

| SMILES | Potency | activity change, negative = growth inhibition |
| --- | --- | --- |
| CCCCN1CC(c2nc3ccccc3n2CCCCOc2ccccc2C)CC1=O (stereo not given) | active: 7.31 µM |  |
| CC(=O)N[C@@H](CSC/C=C(\C)CC/C=C(\C)CC/C=C(\C)CCC=C(C)C)C(=O)O | inconclusive [inhibitor, single point] |  |
| COc1ccc(OC)c(CNC(=O)C2CCN(S(=O)(=O)N3CCCCC3)CC2)c1 | inconclusive [inhibitor, single point] |  |
| CCc1nn(CC(=O)Nc2ccc(C)c(F)c2)c(=O)c2cc3cc(C)ccc3n12 | inconclusive [inhibitor, partial curve] |  |
| COc1ccc(OC)c(-n2nnnc2SCC(=O)N2CCN(C(=O)c3ccco3)CC2)c1 | inconclusive [inhibitor, single point] |  |
| COc1cccc(CN2CCCC(N3CCc4ccccc4C3)C2)c1O (stereo not given) | inactive |  |
| O=C(N/N=C/C=C\c1ccccc1[N+](=O)[O-])c1ccncc1 | inconclusive [inhibitor, single point] |  |
| O=[N+]([O-])c1ccc(/C=C/c2cc(Cl)nc3ccccc23)cc1 | inconclusive [inhibitor, single point] |  |
| COc1ccccc1N1CCN(c2nc3ccc(C(=O)c4ccccc4)cc3n3c(C)nnc23)CC1 | inactive |  |
| COc1ccc(CCC(C)NCCc2ccc(Cl)cc2Cl)cc1 (stereo not given) | inconclusive [inhibitor, single point] |  |
| Cc1cccc(C)c1Nc1c(-c2ccccc2Cl)nc2cnccn12 | inconclusive [inhibitor, single point] |  |
| Brc1ccc(Cn2c(-c3ccc(Br)o3)nc3ccccc32)o1 | inconclusive [inhibitor, single point] |  |
| NC(=O)CC(NC(=O)c1ccccc1)c1ccc(NCCc2cccc(F)c2)c([N+](=O)[O-])c1 (stereo not given) | inconclusive [inhibitor, single point] |  |
| CC(NCc1ccc(S(N)(=O)=O)cc1)C(=O)N1c2ccccc2CC1C (stereo not given) | inactive |  |
| CCNc1ncc2nc(-c3ccc(OC)cc3)c(=O)n(Cc3ccc(F)cc3)c2n1 | inactive |  |
| CCN1CCN(Cc2nc3cc(NC(=O)COc4ccc([N+](=O)[O-])cc4)ccc3n2C)CC1 | inconclusive [inhibitor, single point] |  |
| COc1ccc(-c2csc(NC(=O)Cc3ccccc3F)n2)c(OC)c1 | inconclusive [inhibitor, single point] |  |
| CCCN(Cc1cccs1)C(=O)Nc1cc(C)ccc1OC | inconclusive [inhibitor, single point] |  |
| C/C(=N\NS(=O)(=O)c1cccc([N+](=O)[O-])c1)c1cc2ccccc2o1 | inactive |  |
| COc1cccc(N2C(=O)C(Cc3c[nH]c4ccccc34)NC2=S)c1 (stereo not given) | inactive |  |
| CCOc1ccc(-c2cc(C(=O)NCC3CCCO3)c3ccccc3n2)cc1 (stereo not given) | active: 16.4 µM |  |
| Fc1ccc(/C=N/NC(=S)Nc2cccnc2)cc1F | inconclusive [inhibitor, single point] |  |
